Experimental data taken from US20200060273A1, “FUNGICIDAL COMPOSITIONS” (Novus International, Inc., priority 2018, published 2020).

Test system: Podosphaera xanthii
Assay: greenhouse powdery mildew on cucurbit (summer squash) assay
Description: Gentry variety summer squash plants in 1 gallon pots were placed 12 inches apart and inoculated with powdery mildew of cucurbits (Podosphaera xanthii).
The plants were sprayed to run-off with the solution of the appropriate concentration. The fungicide concentration of the mix was the same as a field rate in which 15,000 plants per acre were grown. One-hundred gallons per acre of treatment applications were sprayed using a Flo-Master compressed CO2 sprayer with boom incorporating a single nozzle. Treatments included azoxystrobin at 0.18 lb ai/a (0.021% v/v) with and without HMTBA (three rates: 0.107, 0.536 and 1.073% v/v). An untreated check was included for reference. Each treatment arm received five applications (A, B, C, D, E), with approximately one week between each application.
Powdery mildew severity was rated on 5 plants per plot on a 0-10 scale (0 is no pest damage and 10 is a severe infestation) for the whole plant for each assessments. Pest incidence (percent of plants with signs of disease), the area under the disease progress curve (AUDPC) and percent disease control (Abbott's formula) calculations were performed in ARM9 software (Gylling Data Management). Bartlett's test for homogeneity of variances was used to determine the need for data transformations. Letters in tables represent means separation significant and 0.05.
AUDPC calculates the average disease intensity between each pair of adjacent time points. It is calculated by determining the average distance in rise of disease intensity for each evaluation date and adding them together by treatment. The equation for calculation is as follows:
where y=severity, t=time, N=average disease intensity between two adjacent time points. Percent disease control expresses the severity of fungal disease infection in treated plots, compared to plants in the untreated check. It was calculated using the Abbott formula. The equation for calculation is as follows: […]
Powdery mildew severity was rated on five plants/plot on 3 days after Application A (3DA-A), 1 day after Application B (1 DA-B), 6 days after Application B (6 DA-B), 5 days after Application C (5 DA-C), and 1 day after Application E (1 DA-E).

[1] = Azoxystrobin 0.18 lb ai/a (0.021% v/v), 1 DA-B
[2] = Azoxystrobin 0.18 lb ai/a (0.021% v/v), 1 DA-E
[3] = Azoxystrobin 0.18 lb ai/a (0.021% v/v), 3 DA-A
[4] = Azoxystrobin 0.18 lb ai/a (0.021% v/v), 5 DA-C
[5] = Azoxystrobin 0.18 lb ai/a (0.021% v/v), 6 DA-B

## CO/C=C(/C(=O)OC)c1ccccc1Oc1cc(Oc2ccccc2C#N)ncn1 [Azoxystrobin, azoxystrobin]
[1]
  Average Pest Severity Score (0-10): 1.10 b
  Disease Incidence (%): 45.0% b
[2]
  Average Pest Severity Score (0-10): 2.20 b
  Disease Incidence (%): 70.0% b
[3]
  Average Pest Severity Score (0-10): 0.70 ab
  Disease Incidence (%): 30.0% ab
[4]
  Average Pest Severity Score (0-10): 1.80 bc
  Disease Incidence (%): 50.0% c
[5]
  Average Pest Severity Score (0-10): 1.30 b
  Disease Incidence (%): 50.0% bc
Azoxystrobin 0.18 lb ai/a (0.021% v/v), Abbott's formula vs untreated check
  PM AUDPC % Control: 43.20% b
Azoxystrobin 0.18 lb ai/a (0.021% v/v), five assessments
  Powdery Mildew Area Under the Disease Progress Curve (AUDPC): 36.00 b

## CSCCC(O)C(=O)O (stereo not shown) [HMTBA, 2-hydroxy-4(methylthio)butanoic acid]
HMTBA at 0.536% v/v (with azoxystrobin 0.021% v/v), all assessments
  pest severity ratings compared with other treatments: statistically lower pest severity ratings for all assessments compared to treated and untreated plants
